± gives the standard deviation of the averaged measurements. The full ranking holds about 33,000 sequences; the median of “E-score (dimensionless, -0.5 to 0.5)” is about -0.046, and the highest 2% start at about 0.36. Some of the results follow.
These sequences were tested on T1, SpTbr T-box DNA-binding domain (GST fusion) (assay: PBM E-score of 8-mer (E-score (dimensionless, -0.5 to 0.5)); Tbr is Tbrain of the sea star Patiria miniata (Pm) or the sea urchin Strongylocentrotus purpuratus (Sp); higher = stronger binding preference; most listed sequences are background and not binding sites). Details: the construct has about 5 more residues each side.
T1 sequence: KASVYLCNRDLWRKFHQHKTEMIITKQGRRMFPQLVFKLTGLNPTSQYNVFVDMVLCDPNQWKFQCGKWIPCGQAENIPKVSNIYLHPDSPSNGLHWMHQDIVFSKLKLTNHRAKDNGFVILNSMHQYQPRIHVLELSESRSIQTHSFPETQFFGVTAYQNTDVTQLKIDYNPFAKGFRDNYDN
In short: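 Using the Universal PBM Analysis Suite, every ungapped 8-mer received an enrichment E-score averaged over duplicate arrays. Probe intensities came from double-stranded Universal Agilent oligonucleotide arrays incubated with 200 nM GST-fused Tbr T-box DNA-binding domain in PBS (pH 7.5). That protein was expressed in BL21 E. coli at 20 °C and purified by glutathione affinity chromatography.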

Sequence	PBM E-score of 8-mer
GTTAGTCA	0.036 ± 0.012
CACGCAAG	0.173 ± 0.036
ACTGCACC	-0.1368 ± 0.00017
CGGGGACA	-0.029 ± 0.038
CGAGGAGA	-0.137 ± 0.018
ACAGCGCG	0.253 ± 0.02
ATCTGTGC	-0.241 ± 0.069
AAGGCAAG	-0.00871 ± 0.069
AGGAAGTC	-0.143 ± 0.016
AAGTCAGT	-0.309 ± 0.0071
AGTAATGA	-0.0258 ± 0.039
CGCGCCTC	0.365 ± 0.039
GCCCGACC	-0.213 ± 0.054
AGTAGATA	-0.284 ± 0.013
AGTTGCCC	-0.0911 ± 0.072
AGCCCACC	-0.287 ± 0.027
GGGAAAAA	-0.0358 ± 0.093
ACATTGAT	0.0854 ± 0.025
CAGAGGTC	-0.0425 ± 0.0058
GAGGGCGA	0.0238 ± 0.078
CTGATTCC	-0.253 ± 0.0094
AAGCACGA	-0.0497 ± 0.059
CACGCCAC	0.228 ± 0.028
CGTCACGC	0.288 ± 0.028
AAAACAAA	-0.198 ± 0.0028

Sequence	PBM E-score of 8-mer
GCATTTAC	0.0233 ± 0.0032
AATAGTTG	0.0033 ± 0.019
CCCGATCC	-0.16 ± 0.014
ACACCAAA	0.315 ± 0.013
GCTGGAAC	-0.0219 ± 0.00053
GCACGTGC	0.312 ± 0.081
CGGATTCC	-0.115 ± 0.051
AGGTAACC	-0.0796 ± 0.049
GCCGACAA	0.161 ± 0.014
ATCTTTGA	-0.0984 ± 0.035
CTTCAGCA	0.0811 ± 0.022
AAGACTAG	-0.182 ± 0.17
GTCTTGAA	-0.0886 ± 0.1
AAGCCCGT	-0.195 ± 0.062
TAAAAACA	-0.0415 ± 0.032
GCACAGCC	-0.169 ± 0.0024
ACCCGATG	0.0574 ± 0.046
CCAAACGC	-0.041 ± 0.043
TGGGTAAA	-0.199 ± 0.038
AATGGGAG	-0.225 ± 0.045
ACGTTGTG	0.193 ± 0.03
CGGCGACA	0.296 ± 0.018
GAGAAATC	-0.106 ± 0.025
ACGTCTCC	-0.0957 ± 0.001
GACTCCGA	-0.234 ± 0.015

Sequence	PBM E-score of 8-mer
AATAAACA	0.129 ± 0.078
AGGTGGGA	0.433 ± 0.0055
GGCATATA	-0.249 ± 0.046
ACCGCTGA	-0.128 ± 0.016
CTAGGGTA	-0.263 ± 0.04
ACCTCGAC	0.142 ± 0.016
GTTCCAAA	-0.131 ± 0.076
AATAGCAG	0.00093 ± 0.029
AATCGGTG	-0.0579 ± 0.036
ATTCTATC	-0.189 ± 0.067
AGGACACC	0.323 ± 0.014
GATCATGC	-0.082 ± 0.021
CATTTCTC	0.2 ± 0.013
TGAGAAAA	0.22 ± 0.073
GCACTGCC	0.108 ± 0.058
AACCCCCA	-0.119 ± 0.032
AAACCGAT	-0.099 ± 0.01
CAGCGGCC	-0.0972 ± 0.037
ATGTGGTG	0.23 ± 0.052
CGTTATAG	-0.139 ± 0.021
GCGGCTCA	-0.0334 ± 0.022
ACAACAGA	-0.0586 ± 0.028
CGTACTTC	-0.182 ± 0.02
ATAGGCAG	-0.2 ± 0.035
ACATATCG	-0.0304 ± 0.055

Sequence	PBM E-score of 8-mer
TACCCGAA	-0.184 ± 0.022
CGCACCTA	0.43 ± 0.0064
GAGGTTCA	-0.0617 ± 0.056
ATCACCCC	0.232 ± 0.013
AACTTATC	-0.00715 ± 0.012
GCGCGTCC	0.0329 ± 0.089
AGCCCAGA	-0.0897 ± 0.026
CCTAGCCG	-0.117 ± 0.024
CTAAAAAC	-0.0726 ± 0.048
AAACTATG	-0.131 ± 0.049
ACGTTAAA	-0.142 ± 0.022
CCCTGCGC	0.121 ± 0.06
TCGTGTCA	0.294 ± 0.0086
ACTGATTA	-0.115 ± 0.02
CGTTAAAG	0.156 ± 0.0087
CGTGCTTC	-0.16 ± 0.011
CCACGTAG	0.111 ± 0.0044
AAGGGGCG	0.159 ± 0.01
AAGACCAA	-0.233 ± 0.068
GCGCTTCA	0.0495 ± 0.077
GAGACTGC	-0.172 ± 0.0027
CGAAGCTA	-0.0815 ± 0.044
GCAACAAA	0.15 ± 0.024
CCGACAGA	0.0962 ± 0.028
CGCCTCTA	0.0534 ± 0.033

Sequence	PBM E-score of 8-mer
CCCCACAA	0.179 ± 0.0035
ACATTACG	-0.000135 ± 0.015
ATGCTTGC	-0.0178 ± 0.079
CTGTACAG	0.039 ± 0.044
AGGATCCT	-0.00585 ± 0.095
CTTTGGGA	-0.144 ± 0.032
CGGCGCCC	0.0161 ± 0.043
GAGCTCAA	-0.193 ± 0.0096
ATCGGGGA	-0.27 ± 0.037
AGCGGATA	-0.0726 ± 0.019
CGGCTCTC	-0.0922 ± 0.065
CTAACAAG	0.168 ± 0.051
ACGTTCCT	-0.0781 ± 0.049
GGAATACA	-0.232 ± 0.053
ACCAAGAG	0.0246 ± 0.0012
ACGACCAC	-0.055 ± 0.024
AGAGGCGC	0.179 ± 0.044
GGCTAGAA	-0.0594 ± 0.0051
ACGCCCCT	0.227 ± 0.029
AGAGTGAA	0.136 ± 0.019
ACGGTAGC	0.0609 ± 0.11
CTCGCTTC	0.144 ± 0.0036
ACATATGG	0.184 ± 0.06
GGCGCAGA	0.0595 ± 0.023
CTACAACC	-0.103 ± 0.034

Sequence	PBM E-score of 8-mer
AACGTCGA	-0.183 ± 0.11
CAAACGTG	0.279 ± 0.018
TAGCATAA	-0.151 ± 0.0099
CACAATAG	0.0976 ± 0.074
GGCCGGAA	-0.212 ± 0.025
AAGACGGG	-0.179 ± 0.038
GACCGTAA	-0.00484 ± 0.024
AGACGGAC	-0.231 ± 0.093
CAGCTCTC	0.00347 ± 0.047
CAGCAGTA	-0.0514 ± 0.03
GCATTACC	-0.103 ± 0.064
TAGGACTA	-0.305 ± 0.011
AAATCTTG	-0.223 ± 0.024
ATCCCCCA	-0.134 ± 0.012
GCCTAAGC	-0.159 ± 0.006
ACTGGAAG	-0.163 ± 0.009
GAACGCCC	0.138 ± 0.0086
AATTTGGC	0.035 ± 0.077
ACGAGCGC	-0.112 ± 0.037
AATTACGT	-0.0995 ± 0.054
ATGTGATA	0.254 ± 0.024
ATTCGCCG	-0.0403 ± 0.033
CGCGTAAG	0.238 ± 0.041
CGACACCA	0.387 ± 0.014
CAGCGCCA	0.0938 ± 0.059

Sequence	PBM E-score of 8-mer
CAATTATC	0.13 ± 0.057
GTAGCGAA	0.0193 ± 0.057
AGGGTTTA	-0.111 ± 0.019
TCTTTAAA	-0.159 ± 0.034
ATTGAGGG	-0.243 ± 0.003
CCGCTCCC	-0.0507 ± 0.026
AGACTCAC	0.0502 ± 0.0099
ATAAGTAT	-0.165 ± 0.04
CTTCGTTA	-0.0171 ± 0.094
CAGGTTAG	-0.0345 ± 0.013
ATATCTAG	-0.28 ± 0.02
CGGCCGCC	0.0556 ± 0.025
AATTGTGC	0.141 ± 0.035
CCTATCGA	0.042 ± 0.12
CTCCCACC	0.292 ± 0.039
CGTCAGGC	0.0421 ± 0.067
GAGGCCGA	-0.168 ± 0.14
GCGTACGA	-0.165 ± 0.032
TAATAGGA	-0.167 ± 0.025
ACTTTATG	0.00571 ± 0.017
CGTCTAGA	-0.287 ± 0.12
GATGCCAA	-0.181 ± 0.059

— the supplement of paper PMC4166925
